Measurements published in PMC10530723, “The Conserved Chromatin Remodeler SMARCAD1 Interacts with TFIIIC and Architectural Proteins in Human and Mouse” (Genes, 2023).
No constants are given. Whether binding was seen depends on the method and setting. In cells and extracts the contact can be indirect. Some binding calls cover weakened binding; strength is not graded here.

By UniProt entry, the sequences of proteins in these tests, tags left out.
UniProt Q8K284: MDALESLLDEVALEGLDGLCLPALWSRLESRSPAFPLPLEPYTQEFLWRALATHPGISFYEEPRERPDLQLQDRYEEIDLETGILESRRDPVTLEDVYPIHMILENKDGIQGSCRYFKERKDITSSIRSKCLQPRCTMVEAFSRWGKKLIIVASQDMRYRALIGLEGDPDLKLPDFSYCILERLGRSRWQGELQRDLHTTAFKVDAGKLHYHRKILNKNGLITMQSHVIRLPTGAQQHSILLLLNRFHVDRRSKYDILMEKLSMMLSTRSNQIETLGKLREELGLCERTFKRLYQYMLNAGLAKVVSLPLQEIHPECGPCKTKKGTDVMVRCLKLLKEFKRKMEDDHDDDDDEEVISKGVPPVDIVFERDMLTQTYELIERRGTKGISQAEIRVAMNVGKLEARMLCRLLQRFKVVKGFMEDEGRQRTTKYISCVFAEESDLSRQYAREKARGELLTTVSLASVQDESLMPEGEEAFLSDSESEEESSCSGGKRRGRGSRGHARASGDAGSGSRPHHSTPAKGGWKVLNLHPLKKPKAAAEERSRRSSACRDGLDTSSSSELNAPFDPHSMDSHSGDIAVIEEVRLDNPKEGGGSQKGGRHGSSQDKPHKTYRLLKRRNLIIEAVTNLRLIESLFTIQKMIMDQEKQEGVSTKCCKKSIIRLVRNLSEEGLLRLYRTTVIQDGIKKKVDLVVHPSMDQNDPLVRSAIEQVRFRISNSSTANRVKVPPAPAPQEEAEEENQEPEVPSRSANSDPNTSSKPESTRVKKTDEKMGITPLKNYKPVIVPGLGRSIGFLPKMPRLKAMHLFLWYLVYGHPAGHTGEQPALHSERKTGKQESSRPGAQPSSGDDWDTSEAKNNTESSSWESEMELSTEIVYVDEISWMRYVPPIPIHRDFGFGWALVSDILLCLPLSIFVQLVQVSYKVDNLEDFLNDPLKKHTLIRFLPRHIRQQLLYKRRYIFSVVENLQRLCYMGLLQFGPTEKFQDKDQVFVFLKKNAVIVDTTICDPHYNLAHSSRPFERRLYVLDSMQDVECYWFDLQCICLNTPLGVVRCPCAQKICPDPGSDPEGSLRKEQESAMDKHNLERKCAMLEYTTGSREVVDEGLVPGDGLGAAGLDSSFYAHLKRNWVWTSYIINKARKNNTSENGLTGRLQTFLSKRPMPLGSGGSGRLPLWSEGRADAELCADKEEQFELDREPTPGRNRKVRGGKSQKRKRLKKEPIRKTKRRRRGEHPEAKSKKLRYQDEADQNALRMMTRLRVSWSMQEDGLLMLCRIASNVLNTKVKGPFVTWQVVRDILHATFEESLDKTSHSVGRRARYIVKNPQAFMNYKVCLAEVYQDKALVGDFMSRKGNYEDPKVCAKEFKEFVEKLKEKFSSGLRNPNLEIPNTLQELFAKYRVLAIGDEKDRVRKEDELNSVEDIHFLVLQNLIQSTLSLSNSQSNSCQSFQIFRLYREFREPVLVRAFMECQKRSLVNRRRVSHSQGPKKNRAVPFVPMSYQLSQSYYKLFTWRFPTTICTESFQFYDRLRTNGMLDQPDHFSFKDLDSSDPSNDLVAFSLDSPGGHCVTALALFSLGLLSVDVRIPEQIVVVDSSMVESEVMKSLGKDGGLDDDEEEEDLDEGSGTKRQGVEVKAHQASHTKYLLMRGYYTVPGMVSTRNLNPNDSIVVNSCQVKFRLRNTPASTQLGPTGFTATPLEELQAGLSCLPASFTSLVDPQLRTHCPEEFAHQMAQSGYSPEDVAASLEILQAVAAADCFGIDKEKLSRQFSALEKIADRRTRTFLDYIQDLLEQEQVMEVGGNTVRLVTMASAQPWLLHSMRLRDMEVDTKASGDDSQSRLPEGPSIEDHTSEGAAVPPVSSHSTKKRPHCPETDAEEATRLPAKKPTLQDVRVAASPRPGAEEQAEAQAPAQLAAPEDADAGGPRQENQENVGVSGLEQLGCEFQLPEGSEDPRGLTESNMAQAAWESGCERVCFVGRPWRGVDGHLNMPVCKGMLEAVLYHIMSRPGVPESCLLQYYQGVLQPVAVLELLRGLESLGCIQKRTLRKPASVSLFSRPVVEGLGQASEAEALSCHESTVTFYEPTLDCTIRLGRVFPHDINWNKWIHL
UniProt Q9CW03: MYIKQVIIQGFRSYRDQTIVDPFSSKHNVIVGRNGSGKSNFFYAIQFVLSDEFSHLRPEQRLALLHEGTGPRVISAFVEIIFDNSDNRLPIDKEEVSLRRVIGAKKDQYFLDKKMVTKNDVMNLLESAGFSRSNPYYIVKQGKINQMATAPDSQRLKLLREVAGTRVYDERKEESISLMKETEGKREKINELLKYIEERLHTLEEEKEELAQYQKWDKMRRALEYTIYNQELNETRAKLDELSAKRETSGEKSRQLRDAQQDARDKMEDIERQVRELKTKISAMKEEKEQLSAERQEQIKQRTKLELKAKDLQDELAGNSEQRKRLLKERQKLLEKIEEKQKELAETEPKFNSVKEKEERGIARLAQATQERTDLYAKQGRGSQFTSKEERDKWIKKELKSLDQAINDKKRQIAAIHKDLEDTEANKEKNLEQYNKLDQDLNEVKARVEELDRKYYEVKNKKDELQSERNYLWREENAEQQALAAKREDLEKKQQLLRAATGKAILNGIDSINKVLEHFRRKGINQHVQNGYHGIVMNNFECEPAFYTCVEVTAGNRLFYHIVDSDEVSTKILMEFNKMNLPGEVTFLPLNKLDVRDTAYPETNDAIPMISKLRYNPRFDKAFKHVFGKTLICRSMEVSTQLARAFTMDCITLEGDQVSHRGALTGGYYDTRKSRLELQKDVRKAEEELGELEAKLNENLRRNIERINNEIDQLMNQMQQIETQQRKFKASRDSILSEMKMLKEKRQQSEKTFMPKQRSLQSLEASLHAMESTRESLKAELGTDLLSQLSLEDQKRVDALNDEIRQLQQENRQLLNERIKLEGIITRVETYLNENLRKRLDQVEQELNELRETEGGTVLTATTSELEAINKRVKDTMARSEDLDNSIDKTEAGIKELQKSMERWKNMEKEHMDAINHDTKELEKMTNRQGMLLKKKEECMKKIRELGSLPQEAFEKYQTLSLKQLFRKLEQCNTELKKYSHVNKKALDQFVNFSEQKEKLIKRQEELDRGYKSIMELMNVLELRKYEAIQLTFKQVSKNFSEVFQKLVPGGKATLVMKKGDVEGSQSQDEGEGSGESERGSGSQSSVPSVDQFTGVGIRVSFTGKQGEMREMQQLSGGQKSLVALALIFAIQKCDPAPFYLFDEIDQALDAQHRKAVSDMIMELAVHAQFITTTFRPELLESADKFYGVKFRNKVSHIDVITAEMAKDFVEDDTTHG

T1: SMARCAD1 (endogenous, mouse ESCs) (mouse (endogenous in 46C ESCs)) (UniProt Q04692)
T1 sequence: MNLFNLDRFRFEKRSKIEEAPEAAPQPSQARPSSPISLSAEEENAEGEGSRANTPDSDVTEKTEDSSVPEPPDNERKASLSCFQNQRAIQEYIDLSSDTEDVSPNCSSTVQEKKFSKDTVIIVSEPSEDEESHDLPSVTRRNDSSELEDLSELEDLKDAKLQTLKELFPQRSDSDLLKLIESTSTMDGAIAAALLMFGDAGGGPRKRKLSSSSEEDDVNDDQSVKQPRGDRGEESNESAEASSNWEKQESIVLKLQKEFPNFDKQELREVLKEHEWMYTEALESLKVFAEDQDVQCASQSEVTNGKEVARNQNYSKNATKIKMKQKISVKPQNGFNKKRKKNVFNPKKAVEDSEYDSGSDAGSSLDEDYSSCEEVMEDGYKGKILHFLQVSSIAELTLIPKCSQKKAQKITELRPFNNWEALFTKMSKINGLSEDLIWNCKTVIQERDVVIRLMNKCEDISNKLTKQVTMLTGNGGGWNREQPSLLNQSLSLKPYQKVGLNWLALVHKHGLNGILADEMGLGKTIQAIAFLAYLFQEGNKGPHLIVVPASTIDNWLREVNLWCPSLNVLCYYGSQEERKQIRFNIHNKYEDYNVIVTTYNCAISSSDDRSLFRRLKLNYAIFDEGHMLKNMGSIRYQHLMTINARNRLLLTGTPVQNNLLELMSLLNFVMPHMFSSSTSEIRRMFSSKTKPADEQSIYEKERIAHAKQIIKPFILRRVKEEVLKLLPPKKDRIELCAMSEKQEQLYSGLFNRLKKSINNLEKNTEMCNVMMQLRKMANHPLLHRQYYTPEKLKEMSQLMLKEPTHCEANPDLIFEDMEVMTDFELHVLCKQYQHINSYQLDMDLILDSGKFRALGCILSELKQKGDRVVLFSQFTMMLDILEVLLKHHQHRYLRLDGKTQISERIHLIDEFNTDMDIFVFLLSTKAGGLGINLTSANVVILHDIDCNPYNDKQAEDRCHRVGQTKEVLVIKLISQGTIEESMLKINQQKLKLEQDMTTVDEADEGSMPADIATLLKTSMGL


Biological target: T1, SMARCAD1 (endogenous, mouse ESCs) (mouse (endogenous in 46C ESCs))
Test: co-IP; endogenous proteins from 46C mouse ESC nuclear extract (antibodies to SMARCAD1, TFIIIC63 or TFIIIC90); ethidium bromide and benzonase present; Western blot

Molecule	binding
TFIIIC220 (endogenous, mouse ESCs) (from UniProt Q8K284 1-2101)	binds
SMC1A (endogenous, mouse ESCs) (protein, UniProt Q9CU62 1-1233) MGFLKLIEIENFKSYKGRQIIGPFQRFTAIIGPNGSGKSNLMDAISFVLGEKTSNLRVKTLRDLIHGAPVGKPAANRAFVSMVYSEEGAEDRTFARVIVGGSSEYKINNKVVQLHEYSEELEKLGILIKARNFLVFQGAVESIAMKNPKERTALFEEISRSGELAQEYDKRKKEMVKAEEDTQFNYHRKKNIAAERKEAKQEKEEADRYQRLKDEVVRAQVQLQLFKLYHNEVEIEKLNKELASKNKEIEKDKKRMDKVEDELKEKKKELGKMMREQQQIEKEIKEKDSELNQKRPQYIKAKENTSHKIKKLEAAKKSLQNAQKHYKKRKGDMDELEKEMLSVEKARQEFEERMEEESQSQGRDLTLEENQVKKYHRLKEEASKRAATLAQELEKFNRDQKADQDRLDLEERKKVETEAKIKQKLREIEENQKRIEKLEEYITTSKQSLEEQKKLEGELTEEVEMAKRRIDEINKELNQVMEQLGDARIDRQESSRQQRKAEIMESIKRLYPGSVYGRLIDLCQPTQKKYQIAVTKVLGKNMDAIIVDSEKTGRDCIQYIKEQRGEPETFLPLDYLEVKPTDEKLRELKGAKLVIDVIRYEPPHIKKALQYACGNALVCDNVEDARRIAFGGHQRHKTVALDGTLFQKSGVISGGASDLKAKARRWDEKAVDKLKEKKERLTEELKEQMKAKRKEAELRQVQSQAHGLQMRLKYSQSDLEQTKTRHLALNLQEKSKLESELANFGPRINDIKRIIQSREREMKDLKEKMNQVEDEVFEEFCREIGVRNIREFEEEKVKRQNEIAKKRLEFENQKTRLGIQLDFEKNQLKEDQDKVHMWEQTVKKDENEIEKLKKEEQRHMKIIDETMAQLQDLKNQHLAKKSEVNDKNHEMEEIRKKLGGANKEMTHLQKEVTAIETKLEQKRSDRHNLLQACKMQDIKLPLSKGTMDDISQEEGSSQGEESVSGSQRTSSIYAREALIEIDYGDLCEDLKDAQAEEEIKQEMNTLQQKLNEQQSVLQRIAAPNMKAMEKLESVRDKFQETSDEFEAARKRAKKAKQAFEQIKKERFDRFNACFESVATNIDEIYKALSRNSSAQAFLGPENPEEPYLDGINYNCVAPGKRFRPMDNLSGGEKTVAALALLFAIHSYKPAPFFVLDEIDAALDNTNIGKVANYIKEQSTCNFQAIVISLKEEFYTKAESLIGVYPEQGDCVISKVLTFDLTKYPDANPNPNEQ	binds
TFIIIC63 (endogenous, mouse ESCs) (protein, UniProt Q8R2T8 1-520) MAAAEPDADPKAAIPVDLRRERRLVCVEYPGVVRNEAKMLQTLGGEESVSRIYTDPTKRLELYFRPKDPYCHPVCANRFSTSSLLLRIRKRTRRRRGVLGDEAHPQVTFNLEIIGIISTIYKFQGMSDFQYLAVHTEAGGKHVSMYDRVLMRKPEKEEFFHQELPLYIPPPIFSRLDTPVDYFYRPETQHREGYHNPTISGENLIGLSRARRPHNAIFVNFEDTEVPEQPLEAAVQTWKKACTNPIDQKVEEELRKLFDIRPVWSRNAVKSNVSVHPDKLKILLPYMAYYMITGPWRSLWIRFGYDPRKHPDAKIYQVLDFRIRCGMKYGYGSRDMPVKAKRSTYNYSLPITVKKTSNQPGTMHDLKQGLGPSGTDGPRKLTYNKYKLKDSVYIFREGALPPYRQMFYQLCDLNVEELQKIVHRNDGTETVCTERDGWCLPKTTDHLRDTMSLMILQTIRSERPALFSNTGKADRGKEQLMFESGEEEEEEEEEEEEEEEDFKPSDGSENEMETEILDYV	binds
laminB1 (endogenous, mouse ESCs) (protein, UniProt P14733 1-588) MATATPVQQQRAGSRASAPATPLSPTRLSRLQEKEELRELNDRLAVYIDKVRSLETENSALQLQVTEREEVRGRELTGLKALYETELADARRALDDTARERAKLQIELGKFKAEHDQLLLNYAKKESDLSGAQIKLREYEAALNSKDAALATALGDKKSLEGDLEDLKDQIAQLEASLSAAKKQLADETLLKVDLENRCQSLTEDLEFRKNMYEEEINETRRKHETRLVEVDSGRQIEYEYKLAQALHEMREQHDAQVRLYKEELEQTYHAKLENARLSSEMNTSTVNSAREELMESRMRIESLSSQLSNLQKESRACLERIQELEDMLAKERDNSRRMLSDREREMAEIRDQMQQQLSDYEQLLDVKLALDMEISAYRKLLEGEEERLKLSPSPSSRVTVSRASSSRSVRTTRGKRKRVDVEESEASSSVSISHSASATGNVCIEEIDVDGKFIRLKNTSEQDQPMGGWEMIRKIGDTSVSYKYTSRYVLKAGQTVTVWAANAGVTASPPTDLIWKNQNSWGTGEDVKVILKNSQGEEVAQRSTVFKTTIPEEEEEEEEEPIGVAVEEERFHQQGAPRASNKSCAIM	binds

More lines, now with the values ahead:

binding	Molecule
binds	SMC3 (endogenous, mouse ESCs) (from UniProt Q9CW03 1-1217)
binds	TFIIIC102 (endogenous, mouse ESCs) (protein, UniProt Q3TMP1 1-882) MSGFSPELIDYLEGKISFEEFERRREERKTREKKSVQEKGKSSPKENPDDSEVPSSSGIDSAKSQDKDANEGETSDGVSKSVHKVFASMLGETEDDEEEEEEEEEEETAEQPTAGDVFVLEMVLNRETKKMMKEKRPRSKLPRALRGLMGEANIRFARGEHEEAILMCMEIIRQAPLAYEPFSTLAMIYEDQGDMEKSLQFELIAAHLNPSDTEEWVRLAEMSLEQDNIKQAIFCYTKALKYEPTNVRYLWERSSLYEQMGDHKMAMDGYRRILNLLSPSDGERFMQLARDMAKSYYEANDSASAINIIEEAFSKHQGLVSMEDVNIAAELYISNKQYDKALEVITDFSGIILEKETLEEGTSEENKAAETVTCSIPDSVPIDITVKLMVCLVHLNILEPLNPLLTTLVEQNPEDMGDLYLDVAEAFLDVGEYNSALPLLSALVCSERYNLAVVWLRHAECLKALGYMERAAESYSKVVDLAPLHLDARISLSILQQQLGRPEKALEALEPMYDPDTLAQDANAAQQELKLLLHRSTLLFSQGKMYGYLDTLLTMLAMLLKVAMNRAQVCLISSSKSGERHLYLIKVSRDKISDNNEQETSNYDAKAIFAVLTSVLPKEDWWNLLLKAIYTLSDLARFQEAELLVDSSLEYYSFYDDRQKRKELEYFGLSAAILDKNFRKAYDYIRVMVMENVNKPQLWNIFNQVTMHSQDVRHHRFCLRLMLKNPDNHALCVLNGHNAFVSGSFKHALGQYVQAFRAYPSEPLYNLCIGLTFIHMASQKYVLKRHALTVQGFSFLNRYLSIRGPCQESFYNLGRGLHQLGLTHLAIHYYQKALALPPLVVEGIEVDQLDLRRDIAYNMSLIYQSSGNTAMAQKLLYTYCVI
binds	TFIIIC90 (endogenous, mouse ESCs) (protein, UniProt Q8BMQ2 1-817) MSEADQALVGPKADEPSPPAEEKDEGGGKEAAADAAPGPSASFRLMVTRREPAVKLQYAVSGLEPLSWSEDHRVSVSTARSVAVLELICDVHNPGQDLVIHRTSVPAPLNSCLLKVGSKTEVAECKEKFASSKDPTISQTFMLDRMFNPEGKALPPMRGFKYTSWSPMGCDANGRCLLAALTMDNRLTVQVNLNRLQWVQLVDLTEIYGDRLYETSYRLSKNEAPEGNLGDFAEFQRRHSMQTPVRMEWSSICTTQQVKHNNECRDVSSVLLAVLFENGNIAVWQFQLPFVGKESISSCNTIESGISSPSVLFWWEYEHNNRKMSGLIVGSAFGPVKILPVNLKAVKGYFTLRQPVVLWKEMDKLPVHSIKCVPLYHPYQKCSCSLVVAARGSYVFWCLLLISKAGLNVHNSHVTGLHSLPIVSITADKQNGTVYTCSSDGKVRQLIPIFTDVALKFEHQLIKLSDVFGSVRTHGIAVSPCGAYLAIITTEGMMNGLHPVNKNYQVQFVTLKTFEEAAAQLLESSVQNLFKQVDLIDLVRWKILKDKHIPQFLHEALEKKIESSGVTYFWRFKLFLLRILYQSMQKSPSEALWKPTHEDSKILLVDSPGMGDGEDEQQEEGTSKQGTKAGLQEKSKEGDTEETPEDSLTAGGDTGGREPVEEKLLEIQGKIEAVEMHLTREHMKRVLGEVYLHTWITENTSIPTRGLCNFLMSDEDYDDRTAQVLIGHISKKMNKQTFPERCSLCKEILPFTDRKQAVCSNGHIWLRCFLTYQSCQSLIYRRCLLHDSIARHPVPEDPDWIKRLLQSPCPFCDSPVF
